These results are taken from ChEMBL document CHEMBL4888484, “Replenishing the malaria drug discovery pipeline: Screening and hit evaluation of the MMV Hit Generation Library 1 (HGL1) against asexual blood stage Plasmodium falciparum ,using a nano luciferase reporter read-out” (2022).

In all, about 150,000 compounds went through this assay and about 540 (0.36%) showed an effect of 50% or more. The list shows a part of the results.

For this assay, the system named is Plasmodium falciparum. Kind of assay: Primary screen in NF54 nanoGlo assay, in single point, at 2uM, 72h; a lower Z score goes with more inhibition. Type of assay: functional, Erythrocyte. The conditions noted are these: timepoint 72 hour.
By % Inhibition is commonly meant the drop in the measured response relative to a control, in per cent. Regarding `O=C1NCCCn2cc(nn2)CC2(CCN(C(=O)CN3CCCCCC3=O)CC2)C(=O)N[C@H]1Cc1ccccc1`, the “% Inhibition” value is recorded as -16% and the Z score came out at 2.99.
Taken in the same sequence, the figures for `COc1ccc([C@H]2CC3(C)NC(=O)C2C(=O)N3)c(OC)c1` were -6% and 1.11.
Consider `O=C(NCCn1cnc(-c2ccccc2)c1-c1ccncc1)c1cccnc1`, for which the “% Inhibition” value is reported as -10% and the Z score was found to be 1.6.
Taken in the same sequence, the figures for `O=S(=O)(c1ccc(F)cc1)N1CCC[C@H](CN2CCCC2)CC1` were -4% and 0.55.
Regarding `C[C@@H](CCc1ccccc1)NC(=O)C(=O)NC1CCCC1`, the “% Inhibition” value is reported as -4% and the Z score is 0.65.
Take `CCc1nc2c(c(OC3CCN(C(=O)c4ccnn4CC)CC3)n1)CCOCC2`: the “% Inhibition” value was -7% and the Z score is reported as 0.72.
Turning to `COc1ccc(CCNS(C)(=O)=O)c(Cl)c1`, the “% Inhibition” value is on record as -14% and the Z score was 1.84.
In the case of `c1coc(-c2nc3c(c(N4CCOCC4)n2)CCN(CC2CC2)CC3)c1`, the “% Inhibition” value worked out at 3% and the Z score was -0.43.
Regarding `Cc1nn(Cc2ccc(F)cc2)c(C)c1N1C(=O)CCC1=O`, the “% Inhibition” value is on record as 5% and the Z score is given as -0.78.
Turning to `C#Cc1cccc(NC(=O)CN[C@H](CO)C(C)C)c1`, the “% Inhibition” value is reported as -2% and the Z score came out at 0.4.
The corresponding values for `CC(C)=CCN1CCN(C(=O)c2ccc(Cl)cn2)[C@H]2CS(=O)(=O)C[C@H]21` are 6% and -0.93.
As to `Cc1sc2ncnc(N3CCCCC3)c2c1C(=O)NCc1cccc(Cl)c1`, the “% Inhibition” value was found to be 37% and the Z score was -0.95.
Regarding `O=C(NCCc1ccco1)c1ccc(Cl)o1`, the “% Inhibition” value is -18% and the Z score turned out to be 3.47.
Taken in the same sequence, the figures for `CC(=O)NCCNC(=O)C1CCC(C)(C)CC1` were -14% and 2.19.
Regarding `CCCc1nnc2sc(C3(c4ccccc4)CC3)nn12`, the “% Inhibition” value is listed as 0% and the Z score is 0.07.
Consider `CC(C)(C)OC(=O)N[C@H]1CONC1=O`, for which the “% Inhibition” value is on record as -2% and the Z score stood at 0.33.
`Cc1ccc(CC(=O)N2CC[C@@]3(C2)C(=O)N(C)c2ccccc23)cc1`: the “% Inhibition” value is -12% and the Z score was 1.6.
For the molecule `O=C(COc1ccc2nncn2n1)N(Cc1ccc2c(c1)OCO2)C1CC1`, the “% Inhibition” value is -16% and the Z score was 2.4.
The corresponding values for `O=C(Cc1cccs1)N1CCC2(CCC(=O)N(CCc3cccnc3)C2)CC1` are 5% and -1.07.
As for `CCCn1c(=O)c2sccc2n(CC(=O)Nc2cc(C)on2)c1=O`, the “% Inhibition” value is on record as 2% and the Z score was -0.3.
As to `NC(=O)CO[C@H]1CCOC[C@H]1NC(=O)c1ncccc1O`, the “% Inhibition” value is listed as -17% and the Z score stood at 2.98.
For `O=C(NCc1ccc2c(c1)OCO2)c1ccc2c(=O)n(-c3ccc(F)cc3)c(N3CCCC3)nc2c1`, the “% Inhibition” value was found to be 7% and the Z score is given as -1.4.
As for `Cc1onc(-c2ccccc2Cl)c1C(=O)N1CC(COc2ccc(F)cc2)C1`, the “% Inhibition” value is on record as 6% and the Z score is on record as -0.9.
As for `COc1nc(C)cc(C)c1CN1CCN(C(=O)c2c(F)cccc2F)CC1`, the “% Inhibition” value was -7% and the Z score worked out at 1.07.
In the case of `CCc1noc(CN(C[C@H]2CCOC2)C2CC2)n1`, the “% Inhibition” value was -3% and the Z score is on record as 0.46.
Take `O=C(Cc1ccn[nH]1)NCC(F)(F)F`: the “% Inhibition” value is -3% and the Z score turned out to be 0.48.
Taken in the same sequence, the figures for `Cc1noc(C)c1CN1C(=O)[C@@H]2CC[C@H]1CN(c1nc3ccccc3o1)C2` were -11% and 1.33.
For the molecule `CC(CCOc1ccccc1)C(=O)NCC1CN2CCCC2CO1` (stereo not given), the “% Inhibition” value is -16% and the Z score stood at 1.67.
For `CN(C(=O)c1cc2c(s1)CCCCCC2)c1ccccc1`, the “% Inhibition” value was -7% and the Z score stood at 0.62.
Regarding `Cc1ccc(CN2CCCCCNC(=O)[C@@H]3CCC[C@@H]32)o1`, the “% Inhibition” value is -19% and the Z score amounted to 2.53.
In the case of `Cc1ccc2c(c1)cc(CN[C@H]1CCS(=O)(=O)C1)c(=O)n2Cc1ccccc1Cl`, the “% Inhibition” value is -8% and the Z score is 1.15.
With `CN(CC1(CO)CCCC1)c1ccnc(C(=O)NCc2cccnc2)c1`, the “% Inhibition” value is given as -8% and the Z score was determined as 1.04.
As for `Cc1noc(C)c1CCC(=O)N(C)C1CN(c2ccc3nnc(C)n3n2)C1`, the “% Inhibition” value was -5% and the Z score turned out to be 0.53.
Regarding `Cc1cc(C(N)=O)c(NC(=O)CC[C@H]2CCCO2)s1`, the “% Inhibition” value is given as -8% and the Z score is reported as 1.28.
Turning to `OCC1CCN(c2cc(-c3ccccc3)nc3ncnn23)CC1`, the “% Inhibition” value was -6% and the Z score turned out to be 0.69.
With `c1cc(-c2ccnc3[nH]ccc23)nc(N2CCNCC2)c1`, the “% Inhibition” value is -6% and the Z score stood at 1.23.
Turning to `O=C(c1ccc(O)cc1)C1CCN(C[C@H](O)C(F)(F)F)CC1`, the “% Inhibition” value was found to be 31% and the Z score was -4.47.
The corresponding values for `CN(C)CCN1CCN(C(=O)c2ccc3c(c2)N(C)CC3)CC1` are -13% and 1.14.
Taken in the same sequence, the figures for `O=C1N2CCCC[C@H]2CS(=O)(=O)N1CCN1CCc2ccccc21` were -5% and 0.64.
As to `CC(C)O[C@@H](C)c1n[nH]c(=O)n1CCc1ccccc1F`, the “% Inhibition” value stood at 4% and the Z score is recorded as -0.69.
The corresponding values for `Cc1onc(C(=O)N2CCC(c3nn(C)c(=O)n3C(C)C)CC2)c1COc1ccccc1` are -1% and 0.16.
`Cc1cc(CN(C)Cc2nnc3n2CCOCC3)ccc1C(F)(F)F`: the “% Inhibition” value was -5% and the Z score is listed as 0.72.
Turning to `Nc1c2c(-c3ccc(Cl)cc3)nc(NCCN3CCCC3)nc2nn1-c1ccc(Cl)cc1`, the “% Inhibition” value is recorded as -13% and the Z score is listed as 1.2.
Regarding `O=c1nc(NCc2ccc3c(c2)OCO3)cn[nH]1`, the “% Inhibition” value is given as -10% and the Z score is listed as 1.38.
Turning to `Cc1cc(N)n(CC(=O)NCc2cccnc2N2CCN(C)CC2)n1`, the “% Inhibition” value was -5% and the Z score is recorded as 0.54.
The corresponding values for `Cc1noc(C)c1CN(Cc1ccccc1)C[C@H](O)c1ccco1` are 0% and -0.03.
The corresponding values for `COCCNc1oc(-c2cccnc2)nc1C#N` are -4% and 0.55.
Regarding `CC[C@H](NS(=O)(=O)NCC(F)(F)F)c1ccc(F)cc1F`, the “% Inhibition” value is listed as -7% and the Z score was 0.97.
In the case of `CC1(C(=O)NC2CCCC(F)C2)COC1` (stereo not given), the “% Inhibition” value is on record as -13% and the Z score is on record as 1.21.
Consider `Cc1nnc(CN2CCN(Cc3ccccc3)[C@H]3CS(=O)(=O)C[C@H]32)o1`, for which the “% Inhibition” value is -12% and the Z score amounted to 1.98.
As for `Cn1cc(S(=O)(=O)N[C@@H]2C(=O)NCC2(C)C)cn1`, the “% Inhibition” value was -9% and the Z score turned out to be 0.92.
On to `COCc1cc(=O)n(Cc2cccc(OC)c2)c(N2CCCC2)n1`, for which the “% Inhibition” value is listed as -1% and the Z score is listed as 0.13.
Taken in the same sequence, the figures for `NC(=O)CN1CCC[C@H](NC(=O)c2ccc(-c3ccccc3)cc2)C1` were -13% and 1.96.
Taken in the same sequence, the figures for `O=C(Nc1ccc(N2CCOCC2)cc1)c1ccc2c(c1)CCCC2` were -23% and 2.74.
For the molecule `CCOC(=O)c1c[nH]c(=O)n1Cc1ccccc1`, the “% Inhibition” value is -2% and the Z score was 0.27.
